The list shows a part of the results. At the low end of the ranking the order means little.
Tested on: T1, GST-NbGlk1(82-244)
T1 sequence: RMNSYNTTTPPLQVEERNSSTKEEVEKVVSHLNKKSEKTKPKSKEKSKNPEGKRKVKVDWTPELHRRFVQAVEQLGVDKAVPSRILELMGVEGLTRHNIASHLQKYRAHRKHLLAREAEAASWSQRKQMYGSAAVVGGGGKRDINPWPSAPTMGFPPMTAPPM
Test: protein-binding microarray;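 note: rank-based score ranging −0.5 to +0.5 with E above 0.45 taken as significant binding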
Settings: NbGlk1 is a Golden2-like transcription factor of Nicotiana benthamiana; high values mean tight binding; most listed sequences are background and not binding sites; double strand, one strand shown

Row | Sequence | binding signal
1 | ATCAAGGC | 0.049 E-score
2 | CACGGTGC | -0.264 E-score
3 | ACTTGTAA | 0.123 E-score
4 | ACTAAATG | 0.0206 E-score
5 | ATTTACCA | 0.13 E-score
6 | AACACTTC | -0.142 E-score
7 | ATTGCTTC | 0.16 E-score
8 | AACACCAA | -0.15 E-score
9 | ACTTAAGT | -0.11 E-score
10 | AGTCACTA | -0.151 E-score
11 | ACGGCGTC | -0.251 E-score
12 | ACACTTGG | -0.0418 E-score
13 | AAATCGAG | 0.288 E-score
14 | ATACGAAG | 0.108 E-score
15 | AACTCGTA | -0.0377 E-score
16 | AACCCATC | -0.206 E-score
17 | AACTGGTA | -0.0571 E-score
18 | AGTCTTAG | -0.0359 E-score
19 | CAAATGTC | 0.0135 E-score
20 | AGGTGAAA | -0.0271 E-score
21 | AGACCAGG | -0.242 E-score
22 | AACTTGCC | -0.0482 E-score
23 | AGTCGTCA | -0.149 E-score
24 | AACTTCTT | 0.0105 E-score
25 | CACGTATC | 0.216 E-score

Row | Sequence | binding signal
26 | ACATGAAT | 0.0735 E-score
27 | ACGTTAAC | -0.06 E-score
28 | CACCTGAG | -0.105 E-score
29 | ATGTCGAA | 0.0371 E-score
30 | ACATCACG | -0.0114 E-score
31 | ACAAATAG | 0.0893 E-score
32 | AATGGCGA | -0.0373 E-score
33 | AACCATGG | -0.259 E-score
34 | AATGGGCG | -0.228 E-score
35 | AGACGATG | 0.0227 E-score
36 | AAGGTGGA | -0.0826 E-score
37 | ATAGGCAT | -0.185 E-score
38 | ACACAATC | 0.39 E-score
39 | ACGAGCTC | -0.187 E-score
40 | AGCCGAAT | 0.0689 E-score
41 | AAATACGA | 0.155 E-score
42 | ATTGCGCC | 0.237 E-score
43 | AAATTAAC | 0.118 E-score
44 | ATCTTAAG | 0.211 E-score
45 | AGCATATG | 0.0411 E-score
46 | AATGCGCT | -0.0999 E-score
47 | AGGCATAA | -0.12 E-score
48 | AAAGGGCC | -0.363 E-score
49 | AGGATCAT | 0.104 E-score
50 | AATACTAC | 0.0303 E-score

Row | Sequence | binding signal
51 | CAACAATC | 0.134 E-score
52 | AACAAATC | 0.302 E-score
53 | AACGGCTA | -0.0699 E-score
54 | AAACCAGC | 0.0844 E-score
55 | ACCCTCAA | -0.0779 E-score
56 | AAGTTATG | 0.0676 E-score
57 | AGTGACTG | -0.209 E-score
58 | ATGCGCAG | -0.11 E-score
59 | ACGCGGAC | -0.267 E-score
60 | AACACGCC | -0.204 E-score
61 | AGCCCGCT | -0.343 E-score
62 | CAATGGAG | -0.0637 E-score
63 | AGACGTAC | -0.0843 E-score
64 | AGTCCACA | -0.312 E-score
65 | ATAACAAG | 0.0218 E-score
66 | ACCCGCCA | -0.215 E-score
67 | AGTTTCCA | 0.0549 E-score
68 | CAGCTAAA | -0.0802 E-score
69 | ACGATCAA | 0.0272 E-score
70 | ACAATGGG | -0.0679 E-score
71 | AGCAGCGC | -0.119 E-score
72 | ACTAGGAT | 0.198 E-score
73 | AGGGGAAA | -0.0311 E-score
74 | AACAGTCG | -0.0291 E-score
75 | AAAATCCT | 0.433 E-score

Row | Sequence | binding signal
76 | CAGCAAAG | -0.0202 E-score
77 | ACCCTAGA | 0.0318 E-score
78 | AACGCGCA | 0.0258 E-score
79 | ACGGCCGG | -0.0463 E-score
80 | ACAGACGG | -0.0525 E-score
81 | CACAATCC | 0.366 E-score
82 | ACAATTGT | -0.132 E-score
83 | ACCGAGTG | -0.162 E-score
84 | AGGAGTCA | -0.217 E-score
85 | AGGGGATA | 0.15 E-score
86 | ATTTCATC | 0.269 E-score
87 | AGCCCAGA | -0.184 E-score
88 | ATAACCCC | -0.175 E-score
89 | AAGGCGGC | -0.155 E-score
90 | AACTGGCA | -0.106 E-score
91 | ACGGACGG | -0.112 E-score
92 | CAATCTTA | 0.304 E-score
93 | AAGAGTAA | 0.0593 E-score
94 | ATTTACTC | 0.102 E-score
95 | AGCTCCCT | -0.203 E-score
96 | AGGCGCTA | -0.204 E-score
97 | ACCGCAAG | -0.176 E-score
98 | AACATACT | -0.0781 E-score
99 | CAGCAGCA | -0.0496 E-score
100 | AAAATCAA | 0.334 E-score

Row | Sequence | binding signal
101 | ATCAGCCA | 0.139 E-score
102 | CACTCCCA | -0.0737 E-score
103 | CACTTGCC | -0.174 E-score
104 | ACGCAAGT | -0.15 E-score
105 | ATCGCTTA | 0.231 E-score
106 | ACAAAAGC | 0.0163 E-score
107 | CAGCCCGC | -0.144 E-score
108 | ATCTGGAG | 0.225 E-score
109 | AGGATCTC | 0.402 E-score
110 | ACGCTCTA | -0.0738 E-score
111 | ATTCCCCA | 0.256 E-score
112 | ACGGCGTA | -0.0015 E-score
113 | AGGATTTC | 0.469 E-score
114 | ACCTTGGA | -0.132 E-score
115 | ACTGTTTG | -0.0519 E-score
116 | ATCTGCAC | 0.375 E-score
117 | AGGTTGCG | -0.113 E-score
118 | ACACAGAG | -0.00403 E-score
119 | ACATGTAT | -0.00156 E-score
120 | ACCAGCCC | -0.178 E-score
121 | AAGCAGTG | -0.276 E-score
122 | CAACAGGC | -0.242 E-score
123 | ACTCTACC | -0.0793 E-score
124 | AAGCGAAC | -0.203 E-score
125 | ATACTCTG | 0.0845 E-score

Row | Sequence | binding signal
126 | AGAGAAGC | -0.0895 E-score
127 | AGAATTCG | 0.221 E-score
128 | ATGTTGTA | 0.103 E-score
129 | ACACCCGG | -0.258 E-score
130 | CAAACAGA | 0.0141 E-score
131 | ATTGAGGA | 0.0724 E-score
132 | AACGGGCC | -0.342 E-score
133 | ATTTCTGC | 0.219 E-score
134 | ACAAATAC | 0.118 E-score
135 | AATTCACA | 0.0928 E-score
136 | ACATGCTG | -0.0838 E-score
137 | ACTGACGC | -0.153 E-score
138 | ACATGGCG | -0.0217 E-score
139 | ACGTTGTG | -0.0555 E-score
140 | ACCTCAGA | -0.0911 E-score
141 | ATCGCCCG | 0.188 E-score
142 | ATGCGACG | -0.035 E-score
143 | AGAGTACC | -0.251 E-score
144 | CAATAAGC | -9.89e-05 E-score
145 | AGGACGCA | -0.00541 E-score
146 | ATGCGTCG | 0.0331 E-score
147 | AGGCTGTC | -0.22 E-score
148 | AGCGAACC | -0.248 E-score
149 | AATTCAGT | 0.125 E-score
150 | AGGTGCCA | -0.235 E-score

Row | Sequence | binding signal
151 | AAGTTGAT | 0.0445 E-score
152 | CAAATTAG | 0.0381 E-score
153 | ATTCAGAG | 0.0587 E-score
154 | ACCTATGC | -0.21 E-score
155 | AGTTGCTA | -0.141 E-score
156 | AGGGTCTG | -0.203 E-score
157 | CACTTCGC | -0.059 E-score
158 | AGTTCTAT | -0.0741 E-score
159 | AGGCGTGA | -0.0249 E-score
160 | AACTTCCG | -0.0642 E-score
161 | AAGATCTC | 0.406 E-score
162 | AGCAGGCC | -0.302 E-score
163 | AGCTATTC | -0.148 E-score
164 | ATTAGCAC | -0.0208 E-score
165 | ACGCTACC | -0.109 E-score
166 | AAAGTTTC | -0.0739 E-score
167 | CAAAATCG | 0.386 E-score
168 | ACAGTCTA | 0.00924 E-score
169 | ATTAACCA | -0.0174 E-score
170 | CAGATTCA | 0.293 E-score
171 | ATACGTAT | 0.194 E-score
172 | AAACCGCT | -0.224 E-score

Reference: PMC5836133
